Source: the supplement of paper PMC8728848
The other results are listed elsewhere or left out.

Legend:
Experiment in all cases: glycan array binding signal (z-score within array); higher = stronger binding
Settings in all cases: glycan notation: IUPAC condensed, linker removed
[1] = molecular target: Gal(a1-3)Gal(b1-4)[Fuc(a1-3)]GlcNAc
Procedure, shortened: (§1)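 Negative Z-scores can be read as non-binding. The Z-score is calculated within each array and then averaged across arrays of one protein sequence at different concentrations or buffers and across linkers. Arrays, 3228 in all, were curated from the Consortium for Functional Glycomics database and kept only where the protein sequence was available.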

Gal(a1-3)GalNAc = molecular target: Gal(a1-3)GalNAc
Procedure, shortened: as §1

[2] = molecular target: Gal(a1-3)[Gal(a1-4)]Gal(b1-4)GlcNAc
Procedure, shortened: as §1

Gal(a1-4)Gal(b1-4)Glc = molecular target: Gal(a1-4)Gal(b1-4)Glc
Procedure, shortened: as §1

Gal(a1-4)Gal(b1-4)GlcNAc = molecular target: Gal(a1-4)Gal(b1-4)GlcNAc
Procedure, shortened: as §1

Gal(a1-4)GlcNAc = molecular target: Gal(a1-4)GlcNAc
Procedure, shortened: as §1

Gal(a1-6)Glc = molecular target: Gal(a1-6)Glc
Procedure, shortened: as §1

Gal(b1-2)Gal = molecular target: Gal(b1-2)Gal
Procedure, shortened: as §1

Gal(b1-3)Gal = molecular target: Gal(b1-3)Gal
Procedure, shortened: as §1

Gal(b1-3)GalNAc = molecular target: Gal(b1-3)GalNAc
Procedure, shortened: as §1

[3] = molecular target: Gal(b1-3)GalNAc(b1-4)Gal(b1-4)Glc
Procedure, shortened: as §1

[4] = molecular target: Gal(b1-3)GalNAc(b1-4)[Neu5Ac(a2-3)]Gal(b1-4)Glc
Procedure, shortened: as §1

Gal(b1-3)GlcNAc = molecular target: Gal(b1-3)GlcNAc
Procedure, shortened: as §1

[5] = molecular target: Gal(b1-3)GlcNAc(b1-3)Gal(b1-4)Glc
Procedure, shortened: as §1

[6] = molecular target: Gal(b1-3)[Fuc(a1-4)]GlcNAc
Procedure, shortened: as §1

[7] = molecular target: Gal(b1-3)[GlcNAc(b1-6)]GalNAc
Procedure, shortened: as §1

[8] = molecular target: Gal(b1-3)[Neu5Ac(a2-6)]GalNAc
Procedure, shortened: as §1

[9] = molecular target: Gal(b1-3)[Neu5Ac(a2-6)]GlcNAc(b1-4)Gal(b1-4)Glc
Procedure, shortened: as §1

[10] = molecular target: Gal(b1-3)[Neu5Ac(b2-6)]GalNAc
Procedure, shortened: as §1

[11] = molecular target: Gal(b1-4)GalNAc(a1-3)[Fuc(a1-2)]Gal(b1-4)GlcNAc
Procedure, shortened: as §1

Gal(b1-4)Glc = molecular target: Gal(b1-4)Glc
Procedure, shortened: as §1

Gal(b1-4)Glc6S = molecular target: Gal(b1-4)Glc6S
Procedure, shortened: as §1

Gal(b1-4)GlcNAc = molecular target: Gal(b1-4)GlcNAc
Procedure, shortened: as §1

[12] = molecular target: Gal(b1-4)GlcNAc(b1-3)Gal(b1-4)Glc
Procedure, shortened: as §1

[13] = molecular target: Gal(b1-4)GlcNAc(b1-3)Gal(b1-4)GlcNAc
Procedure, shortened: as §1

[14] = molecular target: Gal(b1-4)GlcNAc(b1-3)Gal(b1-4)GlcNAc(b1-3)Gal(b1-4)GlcNAc
Procedure, shortened: as §1

[15] = molecular target: Gal(b1-4)GlcNAc(b1-3)Gal(b1-4)[Fuc(a1-3)]GlcNAc(b1-3)Gal(b1-4)[Fuc(a1-3)]GlcNAc
Procedure, shortened: as §1

[16] = molecular target: Gal(b1-4)GlcNAc(b1-3)GalNAc
Procedure, shortened: as §1

[17] = molecular target: Gal(b1-4)GlcNAc(b1-3)[Gal(b1-4)GlcNAc(b1-6)]GalNAc
Procedure, shortened: as §1

[18] = molecular target: Gal(b1-4)GlcNAc(b1-6)GalNAc
Procedure, shortened: as §1

[19] = molecular target: Gal(b1-4)GlcNAc(b1-6)[Gal(b1-3)]GalNAc
Procedure, shortened: as §1

Gal3S(b1-3)GalNAc = molecular target: Gal3S(b1-3)GalNAc
Procedure, shortened: as §1

Gal3S(b1-3)GlcNAc = molecular target: Gal3S(b1-3)GlcNAc
Procedure, shortened: as §1

[20] = molecular target: Gal3S(b1-3)[Fuc(a1-4)]GlcNAc
Procedure, shortened: as §1

Gal3S(b1-4)Glc = molecular target: Gal3S(b1-4)Glc
Procedure, shortened: as §1

Gal3S(b1-4)Glc6S = molecular target: Gal3S(b1-4)Glc6S
Procedure, shortened: as §1

Gal3S(b1-4)GlcNAc = molecular target: Gal3S(b1-4)GlcNAc
Procedure, shortened: as §1

Gal4S(b1-4)GlcNAc = molecular target: Gal4S(b1-4)GlcNAc
Procedure, shortened: as §1

Gal6S(b1-4)Glc = molecular target: Gal6S(b1-4)Glc
Procedure, shortened: as §1

Gal6S(b1-4)Glc6S = molecular target: Gal6S(b1-4)Glc6S
Procedure, shortened: as §1

GalNAc(a1-3)Gal = molecular target: GalNAc(a1-3)Gal
Procedure, shortened: as §1

GalNAc(a1-3)GalNAc = molecular target: GalNAc(a1-3)GalNAc
Procedure, shortened: as §1

GalNAc(b1-3)GalNAc = molecular target: GalNAc(b1-3)GalNAc
Procedure, shortened: as §1

GalNAc(b1-4)GlcNAc = molecular target: GalNAc(b1-4)GlcNAc
Procedure, shortened: as §1

Glc(a1-4)Glc = molecular target: Glc(a1-4)Glc
Procedure, shortened: as §1

Glc(b1-4)Glc = molecular target: Glc(b1-4)Glc
Procedure, shortened: as §1

Glc(b1-6)Glc = molecular target: Glc(b1-6)Glc
Procedure, shortened: as §1

[21] = molecular target: GlcNAc(b1-2)Gal(b1-3)GalNAc
Procedure, shortened: as §1

GlcNAc(b1-3)Gal = molecular target: GlcNAc(b1-3)Gal
Procedure, shortened: as §1

[22] = molecular target: GlcNAc(b1-3)Gal(b1-3)GalNAc
Procedure, shortened: as §1

GlcNAc(b1-3)Gal(b1-4)Glc = molecular target: GlcNAc(b1-3)Gal(b1-4)Glc
Procedure, shortened: as §1

[23] = molecular target: GlcNAc(b1-3)Gal(b1-4)GlcNAc
Procedure, shortened: as §1

[24] = molecular target: GlcNAc(b1-3)[GlcNAc(b1-6)]GalNAc
Procedure, shortened: as §1

[25] = molecular target: GlcNAc(b1-3)[GlcNAc(b1-6)]GlcNAc(b1-4)GlcNAc
Procedure, shortened: as §1

[26] = molecular target: GlcNAc(b1-4)GlcNAc(b1-4)GlcNAc
Procedure, shortened: as §1

[27] = molecular target: GlcNAc(b1-4)[GlcNAc(b1-6)]GalNAc
Procedure, shortened: as §1

GlcNAc(b1-6)GalNAc = molecular target: GlcNAc(b1-6)GalNAc
Procedure, shortened: as §1

B1: Siglec-G (Mus musculus), Q80ZE3 (protein)
chain: MSLLLFLLSFLLDGPQGQMESYFLQVQRIVKAQEGLCIFVPCSFSSPEGKWLNRSPLYGYWFKGIRKPSLSFPVATNNKDKVLEWEARGRFQLLGDISKKNCSLLIKDVQWGDSTNYFFRMERGFERFSFKEEFRLQVEALTQKPDIFIPEVLEPGEPVTVVCLFSWTFNQCPAPSFSWMGDAVSFQESRPHTSNYSVLSFIPGLQHHDTELTCQLDFSRMSTQRTVRLRVAYAPRSLAISIFHDNVSVPDLHENPSHLEVQQGQSLRLLCTADSQPPATLSWVLEDQVLSWSSPVGSRTLALELPWVKAGDSGHYTCQAENRLGSQQHTLDLSVLYPPQDLRVTVSQANRTVLEILRNAISLPVLEGQSLCLVCVTYSNPPANVSWAWVTQTLIPIQSSEPGVLELPLVQREHEGEFTCAAQNPLGAQRISLSLSVHYPPQMSSPSCSWEAKGLHCNCSSRAWPAPSLRWRLGEGLLEGNSSNASFTVTFSSLGPWVNSSLSLLQELGPSLWLSCESWNTHGAQTTSVLLLPDKDSATAFSKGAVLGFGITALLALCLIVVIVKTLQKKGTQEEPSRPKLSRGSTILDYINVVPKTRSLARNWKAEPDAPSRSSPLDTHFPKPKKKQKDPHFTYPGCPDPTSSSQVPVSENNPEELHYAALNFSRLRLQETQDPQDTYSDYTEVRVH
With B1 the “glycan array binding signal (z-score)” value [1] was 0.006, the “glycan array binding signal (z-score)” value (Gal(a1-3)GalNAc) was -0.268 and the “glycan array binding signal (z-score)” value [2] was -0.018. The “glycan array binding signal (z-score)” value (Gal(a1-4)Gal(b1-4)Glc) was -0.237, the “glycan array binding signal (z-score)” value (Gal(a1-4)Gal(b1-4)GlcNAc) was -0.084 and the “glycan array binding signal (z-score)” value (Gal(a1-4)GlcNAc) was -0.112. For the same binder, the “glycan array binding signal (z-score)” value (Gal(a1-6)Glc) was -0.257, the “glycan array binding signal (z-score)” value (Gal(b1-2)Gal) was -0.263 and the “glycan array binding signal (z-score)” value (Gal(b1-3)Gal) was -0.139. For the same binder, the “glycan array binding signal (z-score)” value (Gal(b1-3)GalNAc) was -0.145, the “glycan array binding signal (z-score)” value [3] was -0.328 and the “glycan array binding signal (z-score)” value [4] was -0.159. The “glycan array binding signal (z-score)” value (Gal(b1-3)GlcNAc) was -0.146, the “glycan array binding signal (z-score)” value [5] was -0.136 and the “glycan array binding signal (z-score)” value [6] was -0.201. The “glycan array binding signal (z-score)” value [7] was -0.221, the “glycan array binding signal (z-score)” value [8] was -0.38 and the “glycan array binding signal (z-score)” value [9] was -0.223. The “glycan array binding signal (z-score)” value [10] was -0.021, the “glycan array binding signal (z-score)” value [11] was 0.38 and the “glycan array binding signal (z-score)” value (Gal(b1-4)Glc) was -0.105. For the same binder, the “glycan array binding signal (z-score)” value (Gal(b1-4)Glc6S) was -0.352, the “glycan array binding signal (z-score)” value (Gal(b1-4)GlcNAc) was -0.139 and the “glycan array binding signal (z-score)” value [12] was -0.335. The “glycan array binding signal (z-score)” value [13] was -0.113, the “glycan array binding signal (z-score)” value [14] was -0.074 and the “glycan array binding signal (z-score)” value [15] was 0.146. The “glycan array binding signal (z-score)” value [16] was -0.134, the “glycan array binding signal (z-score)” value [17] was -0.122 and the “glycan array binding signal (z-score)” value [18] was -0.381. The “glycan array binding signal (z-score)” value [19] was -0.348, the “glycan array binding signal (z-score)” value (Gal3S(b1-3)GalNAc) was -0.169 and the “glycan array binding signal (z-score)” value (Gal3S(b1-3)GlcNAc) was -0.366. For the same binder, the “glycan array binding signal (z-score)” value [20] was -0.354, the “glycan array binding signal (z-score)” value (Gal3S(b1-4)Glc) was -0.297 and the “glycan array binding signal (z-score)” value (Gal3S(b1-4)Glc6S) was -0.346. The “glycan array binding signal (z-score)” value (Gal3S(b1-4)GlcNAc) was -0.391, the “glycan array binding signal (z-score)” value (Gal4S(b1-4)GlcNAc) was 0.137 and the “glycan array binding signal (z-score)” value (Gal6S(b1-4)Glc) was -0.124. The “glycan array binding signal (z-score)” value (Gal6S(b1-4)Glc6S) was 0.228, the “glycan array binding signal (z-score)” value (GalNAc(a1-3)Gal) was -0.271 and the “glycan array binding signal (z-score)” value (GalNAc(a1-3)GalNAc) was -0.318. For the same binder, the “glycan array binding signal (z-score)” value (GalNAc(b1-3)GalNAc) was -0.269, the “glycan array binding signal (z-score)” value (GalNAc(b1-4)GlcNAc) was -0.278 and the “glycan array binding signal (z-score)” value (Glc(a1-4)Glc) was -0.253. The “glycan array binding signal (z-score)” value (Glc(b1-4)Glc) was 0.012, the “glycan array binding signal (z-score)” value (Glc(b1-6)Glc) was -0.045 and the “glycan array binding signal (z-score)” value [21] was -0.21. The “glycan array binding signal (z-score)” value (GlcNAc(b1-3)Gal) was -0.264, the “glycan array binding signal (z-score)” value [22] was -0.223 and the “glycan array binding signal (z-score)” value (GlcNAc(b1-3)Gal(b1-4)Glc) was -0.034. For the same binder, the “glycan array binding signal (z-score)” value [23] was -0.309, the “glycan array binding signal (z-score)” value [24] was -0.245 and the “glycan array binding signal (z-score)” value [25] was -0.096. For the same binder, the “glycan array binding signal (z-score)” value [26] was -0.138, the “glycan array binding signal (z-score)” value [27] was -0.034 and the “glycan array binding signal (z-score)” value (GlcNAc(b1-6)GalNAc) was -0.411.
